# Reference: article PMC4336329 (PLoS ONE, 2015)
# Out of some 310,000 compounds screened, about 2,200 (0.71%) showed an effect of 50% or more. The effect is printed as a negative number. The list shows a part of the results.
# Biological target: human ether-à-go-go-related gene (hERG) potassium channel (human, UniProt Q12809)
# Experiment: primary screen, population patch clamp on CHO cells stably expressing hERG
# human ether-à-go-go-related gene (hERG) potassium channel, sequence (Q12809 whole entry, looked up): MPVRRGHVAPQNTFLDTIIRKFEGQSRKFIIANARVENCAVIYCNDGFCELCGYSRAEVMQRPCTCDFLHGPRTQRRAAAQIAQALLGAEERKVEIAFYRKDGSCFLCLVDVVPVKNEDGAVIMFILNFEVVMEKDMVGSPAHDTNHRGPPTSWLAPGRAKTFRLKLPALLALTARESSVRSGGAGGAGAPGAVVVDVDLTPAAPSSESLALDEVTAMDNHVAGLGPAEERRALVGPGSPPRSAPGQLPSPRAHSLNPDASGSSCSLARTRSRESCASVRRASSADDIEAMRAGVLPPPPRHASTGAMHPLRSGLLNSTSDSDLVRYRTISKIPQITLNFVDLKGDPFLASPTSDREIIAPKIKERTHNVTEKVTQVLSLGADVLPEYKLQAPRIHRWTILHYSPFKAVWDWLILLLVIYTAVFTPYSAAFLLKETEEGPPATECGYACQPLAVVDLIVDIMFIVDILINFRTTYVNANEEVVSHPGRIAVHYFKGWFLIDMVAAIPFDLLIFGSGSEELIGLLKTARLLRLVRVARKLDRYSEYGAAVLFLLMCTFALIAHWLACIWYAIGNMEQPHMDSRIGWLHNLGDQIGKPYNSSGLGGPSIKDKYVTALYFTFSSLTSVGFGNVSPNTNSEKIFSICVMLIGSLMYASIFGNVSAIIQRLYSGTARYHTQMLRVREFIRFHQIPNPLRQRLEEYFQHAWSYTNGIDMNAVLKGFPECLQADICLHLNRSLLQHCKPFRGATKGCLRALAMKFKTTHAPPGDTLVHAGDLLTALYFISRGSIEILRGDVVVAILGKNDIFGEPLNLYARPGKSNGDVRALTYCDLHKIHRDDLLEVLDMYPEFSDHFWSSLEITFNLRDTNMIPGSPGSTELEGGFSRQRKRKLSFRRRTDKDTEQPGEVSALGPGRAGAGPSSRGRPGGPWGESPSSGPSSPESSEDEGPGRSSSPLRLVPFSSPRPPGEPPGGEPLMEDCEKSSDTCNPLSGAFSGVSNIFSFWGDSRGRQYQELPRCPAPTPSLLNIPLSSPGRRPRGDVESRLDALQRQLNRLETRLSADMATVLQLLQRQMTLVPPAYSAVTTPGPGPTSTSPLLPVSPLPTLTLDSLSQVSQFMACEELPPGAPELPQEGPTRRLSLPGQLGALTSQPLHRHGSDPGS
row,SMILES,"hERG current change (%, negative = inhibition) at 1uM"
1,O=[N+]([O-])c1ccc(Cl)cc1Sc1nc2ccccc2o1,6.27%
2,O=C(O)CN1C(=O)SC(Nc2ccc(C(=O)O)cc2)C1=O (stereo not drawn),5.85%
3,Cn1c(CC(=O)Nc2ccc(Cl)c(Cl)c2)nnc1SCC(=O)N1CCN(c2ccccc2)CC1,4.2%
4,Oc1ccc(Cl)cc1C=Nc1ccccc1Br,11.3%
5,COCCN(C(=O)COC(=O)/C=C/c1ccc(C(F)(F)F)cc1)c1c(N)n(Cc2ccccc2)c(=O)[nH]c1=O,8.12%
6,CCOc1ccccc1NC(=O)N1CCCC(c2nc3c(nnn3Cc3ccc(C)cc3)c(=O)[nH]2)C1 (stereo not drawn),-5.8%
7,CCN(CC(=O)Nc1c(F)cccc1F)C(=O)c1ccc(C(=O)c2ccccc2)cc1,-3.47%
8,Cc1cc(NC(=O)Cn2nc3c(cc2=O)CCCC3)ccc1Br,15.2%
9,CCOCCCNC(=O)C1CCCN(S(=O)(=O)c2cccc3nsnc23)C1 (stereo not drawn),11.1%
10,CCOc1ccccc1NC(=O)C(NCCc1ccc(OC)cc1)c1ccccc1 (stereo not drawn),11.3%
11,CCCc1[nH]nc2c1C1(CCOC1C)C(C#N)=C(N)O2 (stereo not drawn),6.85%
12,Cc1cc2ccccn2c1C(=O)c1ccc(F)cc1,6.54%
13,Cn1c(=O)cc(OCCCC(=O)N2CCN(Cc3ccc4c(c3)OCO4)CC2)c2ccccc21,-3.57%
14,CCN(CC)S(=O)(=O)c1ccc(NC(=O)CSc2ncnc3ccccc23)cc1,6.88%
15,O=C(NCCCN1CCOCC1)/C(=C/c1cccnc1)NC(=O)c1ccccc1,-6%
16,CC(C)N=C1NN=C(c2ccc(F)cc2)CS1,-0.433%
17,FC(F)(F)c1ccc(Nc2nnnc3ccccc23)cc1,10.7%
18,COc1cccc(-n2cc(CNC(=O)C3CCC(=O)N(C4CC4)C3)cn2)c1 (stereo not drawn),7.96%
19,O=[N+]([O-])c1ccccc1/C=N/n1c(COc2ccccc2)n[nH]c1=S,0.17%
20,O=C(/C=C/c1ccc(Cl)cc1Cl)NC(=S)Nc1ccc(CN2CCOCC2)cc1,-3.79%
21,CC(Sc1nnc(COc2ccccc2)n1-c1ccccc1)C(=O)O (stereo not drawn),10.6%
22,COCCNc1nc(N)c([N+](=O)[O-])c(N2CCCCCC2)n1,11.6%

row,SMILES,"hERG current change (%, negative = inhibition) at 1uM"
1,COC(=O)c1ccc(/C=N/NC(=O)c2ccc3nc[nH]c3c2)cc1,24.6%
2,CC(C)C(c1nnnn1Cc1ccco1)N1CCN(c2nc3ccccc3s2)CC1 (stereo not drawn),1.27%
3,CC1=NCCN1CCNC(=O)Nc1ccc(C(C)(C)C)cc1,9.73%
4,CCCCCCOC(=O)c1ccc(OC(=O)c2cccnc2)cc1,11.2%
5,Cc1c(/C=N/NC(=O)C(NC(=O)c2ccc3c(c2)OCO3)C(C)C)c2ccccc2n1C (stereo not drawn),6.15%
6,C#CCOCCOCCOCCNc1nc(N2CCN(C(=O)C(Cc3cc4ccccc4[nH]3)n3cc(C(N)Cc4ccc(O)cc4)nn3)CC2)nc(N2CCN(C(=O)C(CCC(=O)O)n3cc(C(N)C(C)CC)nn3)CC2)n1.Cl (stereo not drawn),17%
7,O=C(O)CC(c1ccccc1)c1ccccc1,-10.7%
8,O=C(O)CCSc1nnc(COc2cccc3ccccc23)n1-c1cccc(Cl)c1,16.3%
9,Cc1ccc(NC(=S)NCc2ccc3[nH]c4c(c3c2)CCCC4)cc1,3.05%
10,Cc1cc(Br)cc(Cl)c1OCC(=O)NC(=O)NCc1ccccc1,4.61%
11,O=C(NCC(c1ccco1)N1CCc2ccccc2C1)c1ccc(Br)cc1 (stereo not drawn),5.24%
12,Cc1cc(CNC(=O)C2CCC(=O)N(Cc3ccccc3F)C2)on1 (stereo not drawn),13.1%
13,CCC(=O)Nc1c(C(=O)N2CCCCCC2)cnn1-c1ccc(C)c(C)c1,-2.23%
14,O=[N+]([O-])c1cccc(-c2ccc(/C=N/NC(=S)Nc3ccccc3)o2)c1,13.3%
15,Cc1cc(NC(=O)COc2c(C)cccc2C)no1,1.95%
16,COc1ccc([N+](=O)[O-])cc1/C=N/Nc1nn[nH]n1,14.8%
17,CCOC(=O)C1CCCN(c2ccc(NC(=O)c3snc4c(=O)[nH]c(C)nc34)cc2)C1 (stereo not drawn),12.4%
18,COc1ccc(S(=O)(=O)NCC(c2cccnc2)N2CCN(Cc3ccccc3)CC2)cc1 (stereo not drawn),-26.7%
19,Cc1ccccc1NC(=O)N(CCc1nc2ccccc2[nH]1)Cc1ccccc1,7.58%
20,O=C(CCCCCNC(=O)c1ccccc1)N/N=C/c1ccc(F)cc1,7.93%
21,COc1ccc(OC)c(C2=NOC(C(=O)N3CCN(c4ccccc4)CC3)C2)c1 (stereo not drawn),7.47%
22,Cn1c(SCC(=O)N(Cc2ccccc2)C(C)(C)C)nc2ccccc21,4.37%

row,SMILES,"hERG current change (%, negative = inhibition) at 1uM"
1,CC(NC(=O)c1ccncc1)C(c1cccs1)N1CCOCC1 (stereo not drawn),6.92%
2,CCc1nnc(NS(=O)(=O)c2ccc(NC(=S)NC(=O)/C=C/c3ccc(F)cc3)cc2)s1,23%
3,COc1ccc(/C=C/C(=O)Nc2ccc3nc4n(c(=O)c3c2)CCCC4)cc1,25.9%
4,COCC(C)OC(=O)c1c(N)n(CCCN2CCOCC2)c2nc3ccccc3nc12 (stereo not drawn),12.1%
5,C=CCc1cccc2cc(C(=O)NCCOC)c(=O)oc12,10.9%
6,CCOC(=O)C(=O)NC1CCSC1=O (stereo not drawn),11.5%
7,O=C(O)COCc1nc2ccccc2[nH]1,-2.87%
8,C(=C\n1nnc2ccccc21)/c1ccc[nH]1,8.3%
9,C/C(=N\NC(=O)c1ccc2c(c1)OCO2)c1ccc2c(c1)OCO2,9.27%
10,Cc1cccc2cc(CN(CCN(C)C)C(=S)Nc3ccccc3)c(=O)[nH]c12,4.24%
11,O=C(CN1C(=O)NC(c2ccccc2)(c2ccccc2)C1=O)Nc1cccnc1Cl,-4.88%
12,O=C(c1ccco1)N1CCN(S(=O)(=O)c2ccc(S(=O)(=O)NC3CCCCC3)cc2)CC1,-4.39%
13,CC(=NCCCN(C)C)C1=C(O)c2ccccc2C1=O,1.37%
14,Cc1ccccc1OCC(O)CN1CCN(c2ccccn2)CC1.Cl (stereo not drawn),-14.6%
15,Clc1ccc(Sc2cc(Cl)c(-c3ccccc3)nn2)cc1,8.23%
16,CCOC(=O)c1nnc(-c2ccccc2)nc1Sc1ccccc1Cl,12.3%
17,CC(=O)N1CCc2cc(NS(=O)(=O)c3cccs3)ccc21,6.68%
18,O=C(COC(=O)c1ccc(F)cc1F)NCCC1=CCCCC1,11.6%
19,CNC(=O)c1cn(-c2ccccc2)c(=O)c2ccccc12,9.83%
20,O=C(C1CCN(S(=O)(=O)c2ccc(F)cc2)CC1)N1CCCC(C(F)(F)F)C1 (stereo not drawn),3.93%
21,COc1ccc(NC(=O)C2CC(=O)N(c3cccc(C)c3C)C2)cc1 (stereo not drawn),8%
22,COc1ccc(-c2cc3nc(C)cc(N)n3n2)cc1,6.77%

row,SMILES,"hERG current change (%, negative = inhibition) at 1uM"
1,S=C(NCc1ccccc1Cl)NC1CCCC1,10.7%
2,CO/N=C(/COc1ccc(F)cc1)c1ccc(OC)cc1,25.4%
3,Nc1ncnc2nc(SCc3ccccc3)[nH]c12,0.244%
4,COc1ccc(CCNC(=O)c2ccc(NS(=O)(=O)c3c(C)noc3C)cc2)cc1OC,6.66%
5,O=C(Cc1c(F)cccc1Cl)NNC(=S)Nc1ccc(S(=O)(=O)Nc2ncccn2)cc1,15.2%
6,CCc1ccc(NC(=O)COc2cccc(-n3cnnn3)c2)cc1,4.31%
7,CCN(CC)Cc1ccccc1CNC(=O)c1cccc(S(=O)(=O)Nc2ccc3c(c2)OCO3)c1,-20.2%
8,COC(=O)C1CCN(C(=O)c2ccc3nc(-c4cccc(OC)c4)oc3c2)CC1,2.5%
9,O=C(CN1C(=O)C2CC=CCC2C1=O)Nc1ccc(S(=O)(=O)Nc2nccs2)cc1 (stereo not drawn),6.39%
10,CCN1CCN(CC(O)COc2cccc(OC)c2)CC1.Cl (stereo not drawn),12.2%
11,Cc1ccc(-n2c(=O)[nH]cc(C(=O)Nc3ccc4c(c3)OCCO4)c2=O)cc1,16.2%
12,CC(C)(C)n1nnnc1C(c1cccnc1)N1CCOCC1 (stereo not drawn),1.14%
13,Cc1ccc(C(=O)N(C)Cc2ccccc2)cc1S(=O)(=O)N1CCOCC1,9.21%
14,S=C(c1c[nH]c2ccccc12)N1CCOCC1,3.08%
15,Cc1ccc2cc(CN(CCCN(C)C)C(=S)NCc3ccccc3)c(=O)[nH]c2c1C,-1.99%
16,CCCN1CN=C(Nc2nc3ccccc3o2)NC1,9.35%
17,N=c1oc2cc(O)ccc2cc1C(=O)Nc1ccc(F)cc1,10.2%
18,COc1cccc(C(c2nnnn2Cc2ccccc2)N2CCN(C3CCCC3)CC2)c1OC.Cl (stereo not drawn),-3.92%
19,CCc1cc(C(=O)NNC(=S)Nc2cccc(C)c2)cs1,2.37%
20,O=C(/C=C/c1ccco1)NC(=S)Nc1ccc(O)c(-c2nc3ccccc3s2)c1,12.6%
21,CCN(Cc1ccccc1)C(=O)COC(=O)c1cnc(C)cn1,16.9%
